PMC4336329 (PLoS ONE, 2015)
Hit rate of the full screen: of about 310,000 compounds, about 2,200 (0.71%) showed an effect of 50% or more. The effect is printed as a negative number. The list shows a part of the results.

Molecular target: human ether-à-go-go-related gene (hERG) potassium channel (human, UniProt Q12809)
Assay: primary screen, population patch clamp on CHO cells stably expressing hERG

Sequence of human ether-à-go-go-related gene (hERG) potassium channel (Q12809 whole entry, looked up): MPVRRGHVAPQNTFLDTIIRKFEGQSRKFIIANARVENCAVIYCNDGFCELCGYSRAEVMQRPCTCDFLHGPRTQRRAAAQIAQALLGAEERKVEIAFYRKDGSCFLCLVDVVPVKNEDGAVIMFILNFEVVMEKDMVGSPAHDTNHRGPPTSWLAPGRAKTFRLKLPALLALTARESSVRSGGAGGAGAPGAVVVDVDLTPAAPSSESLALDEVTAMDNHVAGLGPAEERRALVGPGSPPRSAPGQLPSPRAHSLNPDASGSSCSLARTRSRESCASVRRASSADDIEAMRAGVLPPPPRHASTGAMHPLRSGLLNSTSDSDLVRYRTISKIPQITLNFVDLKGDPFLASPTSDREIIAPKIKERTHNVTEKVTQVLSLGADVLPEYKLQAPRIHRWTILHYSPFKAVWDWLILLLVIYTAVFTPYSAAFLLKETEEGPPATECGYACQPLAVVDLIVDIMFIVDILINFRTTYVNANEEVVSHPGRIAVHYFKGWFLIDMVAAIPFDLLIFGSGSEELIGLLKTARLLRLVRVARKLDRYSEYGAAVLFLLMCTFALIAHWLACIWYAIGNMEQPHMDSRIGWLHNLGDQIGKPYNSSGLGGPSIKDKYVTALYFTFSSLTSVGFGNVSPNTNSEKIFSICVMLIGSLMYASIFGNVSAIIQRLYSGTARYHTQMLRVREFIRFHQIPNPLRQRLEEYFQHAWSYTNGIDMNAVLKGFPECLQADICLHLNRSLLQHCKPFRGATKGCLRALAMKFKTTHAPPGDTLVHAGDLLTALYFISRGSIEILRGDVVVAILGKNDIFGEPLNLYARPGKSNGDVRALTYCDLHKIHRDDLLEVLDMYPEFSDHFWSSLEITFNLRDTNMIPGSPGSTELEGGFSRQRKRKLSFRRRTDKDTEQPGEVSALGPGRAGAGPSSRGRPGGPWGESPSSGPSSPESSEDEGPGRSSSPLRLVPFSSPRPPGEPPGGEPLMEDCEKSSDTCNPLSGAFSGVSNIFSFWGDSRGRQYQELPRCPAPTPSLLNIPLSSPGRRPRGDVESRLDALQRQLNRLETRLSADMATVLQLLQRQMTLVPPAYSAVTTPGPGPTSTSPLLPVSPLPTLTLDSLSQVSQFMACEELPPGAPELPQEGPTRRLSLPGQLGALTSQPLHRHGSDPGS

**Q.** CCOC(=O)[C@H]1[C@H]2COc3cc(OC)ccc3[C@@H]2N2C(=O)c3cc(F)ccc3NC(=O)[C@@]12C was tested. Which “hERG current change (%, negative = inhibition) at 1uM” value did it give?
**A.** 17.3%

**Q.** For Cc1cccc(C(=O)Nc2nnc(Cc3ccccc3)s2)c1, which “hERG current change (%, negative = inhibition) at 1uM” value is on record?
**A.** 13.3%

**Q.** How did the “hERG current change (%, negative = inhibition) at 1uM” value turn out when O=C1CSC(=S)N1c1cccc(Cl)c1 was run?
**A.** 16.6%

**Q.** How did the “hERG current change (%, negative = inhibition) at 1uM” value turn out when Cc1ccccc1C(=O)Nn1c(C)ccc1C was run?
**A.** 11.2%

**Q.** With CC1=C(C(=O)OCC(C)C)C23C(=O)c4ccccc4C2(O1)OC(N)=C3C#N (stereo not shown) as the molecule, how does the “hERG current change (%, negative = inhibition) at 1uM” value read?
**A.** 10.3%

**Q.** How did the “hERG current change (%, negative = inhibition) at 1uM” value turn out when COc1ccc(CCn2c(C)c(C(C)=O)c3cc(OC(=O)c4ccco4)ccc32)cc1OC was run?
**A.** 14.1%

**Q.** Which “hERG current change (%, negative = inhibition) at 1uM” value does the source give for CCOc1ccc(NC(=O)c2cc(C)nc3ccccc23)cc1 here?
**A.** 0.102%

**Q.** With CCC(C)N(C(=O)c1csnn1)C(C(=O)NCc1ccc(F)cc1)c1ccccc1F (stereo not shown) as the molecule, how does the “hERG current change (%, negative = inhibition) at 1uM” value read?
**A.** 12%

**Q.** For Cc1ccc(C(=O)Nc2ccc(C(=O)NCC3CCCO3)cc2)cc1 (stereo not shown), which “hERG current change (%, negative = inhibition) at 1uM” value is on record?
**A.** 18.7%

**Q.** How did the “hERG current change (%, negative = inhibition) at 1uM” value turn out when COC(=O)c1cnn(-c2ccc(Cl)cc2)c1/C=N/NC(N)=S was run?
**A.** 14.8%

**Q.** Which “hERG current change (%, negative = inhibition) at 1uM” value does the source give for CCn1c(NC(=O)c2cccs2)c(-c2cccs2)c(=O)c2ccccc21 here?
**A.** 4.43%

**Q.** With O=C1CCN(Cc2ccccc2)S(=O)(=O)c2ccc(C(F)(F)F)cc21 as the molecule, how does the “hERG current change (%, negative = inhibition) at 1uM” value read?
**A.** 8.82%

**Q.** Which “hERG current change (%, negative = inhibition) at 1uM” value does the source give for CC(=O)c1cccc(NC(=O)Cc2coc3cc4c(cc23)CCC4)c1 here?
**A.** 11.5%

**Q.** For COc1ccccc1CNC(=O)c1cc(C)nn1-c1ccccc1, which “hERG current change (%, negative = inhibition) at 1uM” value is on record?
**A.** 11.9%

**Q.** With CCCCCn1c(CNC(=O)COC)nc2ccccc21 as the molecule, how does the “hERG current change (%, negative = inhibition) at 1uM” value read?
**A.** -1.45%

**Q.** CCN(C(=O)COC(=O)COc1ccc(Cl)c(C)c1)C1CCS(=O)(=O)C1 (stereo not shown) was tested. Which “hERG current change (%, negative = inhibition) at 1uM” value did it give?
**A.** -9.42%

**Q.** Which “hERG current change (%, negative = inhibition) at 1uM” value does the source give for COC(=O)c1sccc1NC(=O)CCC1CCCCC1 here?
**A.** 5.13%

**Q.** Cn1cccc1C(=O)OCc1cc(-c2ccco2)on1 was tested. Which “hERG current change (%, negative = inhibition) at 1uM” value did it give?
**A.** 15.3%

**Q.** For CC(=O)c1ccc(OCc2cc(C(=O)N(C)Cc3ccon3)no2)cc1, which “hERG current change (%, negative = inhibition) at 1uM” value is on record?
**A.** -0.087%

**Q.** With Cc1ccccc1C(=O)NCC(=O)Nc1ccccc1C(F)(F)F as the molecule, how does the “hERG current change (%, negative = inhibition) at 1uM” value read?
**A.** 15.2%

**Q.** How did the “hERG current change (%, negative = inhibition) at 1uM” value turn out when N#Cc1ccc(OCC(=O)Nc2nc(-c3ccncc3)cs2)cc1 was run?
**A.** 1.01%

**Q.** COc1ccccc1N1CCN(C(=O)CCc2ccc(S(=O)(=O)NCC(C)C)cc2)CC1 was tested. Which “hERG current change (%, negative = inhibition) at 1uM” value did it give?
**A.** 2.51%

**Q.** With CCOc1ccc(S(=O)(=O)N(CC(=O)NCC2CCCO2)c2ccc(F)cc2)cc1 (stereo not shown) as the molecule, how does the “hERG current change (%, negative = inhibition) at 1uM” value read?
**A.** -1.26%

**Q.** C=CCSc1nnc(NC(=O)CCNC(=O)c2ccco2)s1 was tested. Which “hERG current change (%, negative = inhibition) at 1uM” value did it give?
**A.** -0.919%

**Q.** How did the “hERG current change (%, negative = inhibition) at 1uM” value turn out when Cc1ccc(CN(C)C(=O)c2ccccc2Oc2ccccc2)o1 was run?
**A.** 7.1%

**Q.** Which “hERG current change (%, negative = inhibition) at 1uM” value does the source give for O=C(Nc1ccc(F)cc1F)N1CCCN(c2ccc([N+](=O)[O-])cn2)CC1 here?
**A.** -5.95%

**Q.** How did the “hERG current change (%, negative = inhibition) at 1uM” value turn out when Cc1cc([N+](=O)[O-])ccc1N was run?
**A.** 6.84%

**Q.** For NC(=O)c1ccc(Cc2ncc(C(F)(F)F)cc2Cl)s1, which “hERG current change (%, negative = inhibition) at 1uM” value is on record?
**A.** 13.7%

**Q.** With O=C(NCc1ccccc1)C1=C[C@H](c2coc3ccccc3c2=O)C[C@H](OCCCCO)O1 as the molecule, how does the “hERG current change (%, negative = inhibition) at 1uM” value read?
**A.** -26.8%

**Q.** For O=[N+]([O-])c1cccnc1N1CCCNCC1, which “hERG current change (%, negative = inhibition) at 1uM” value is on record?
**A.** -1.75%

**Q.** With O=C(N/N=C/c1cccs1)C1COc2ccccc2O1 (stereo not shown) as the molecule, how does the “hERG current change (%, negative = inhibition) at 1uM” value read?
**A.** 5.09%

**Q.** Which “hERG current change (%, negative = inhibition) at 1uM” value does the source give for CN1CCN(C(=S)Nc2ccc(Oc3ccccc3)cc2)CC1 here?
**A.** 3.76%

**Q.** O=C(CCNC(=O)c1ccccc1Cl)NNC(=O)c1ccccc1O was tested. Which “hERG current change (%, negative = inhibition) at 1uM” value did it give?
**A.** 14%

**Q.** O=C(CCc1ccccc1)Nc1nc2c(F)cc(F)cc2s1 was tested. Which “hERG current change (%, negative = inhibition) at 1uM” value did it give?
**A.** 10.3%

**Q.** How did the “hERG current change (%, negative = inhibition) at 1uM” value turn out when O=C(c1ccc2c3c(cccc13)CC2)C1CCCN(CC2CC2)C1 (stereo not shown) was run?
**A.** 0.988%

**Q.** COc1cc(-c2cc(N)n(S(=O)(=O)c3ccc(F)cc3)n2)cc(OC)c1OC was tested. Which “hERG current change (%, negative = inhibition) at 1uM” value did it give?
**A.** 0.825%

**Q.** For CCN(Cc1ccccc1)C(=O)COC(=O)c1n[nH]c2ccccc12, which “hERG current change (%, negative = inhibition) at 1uM” value is on record?
**A.** 4.61%

**Q.** How did the “hERG current change (%, negative = inhibition) at 1uM” value turn out when CCOC(=O)CN1N=C(c2ccc(Cl)cc2)CCC1=O was run?
**A.** 5.31%

**Q.** How did the “hERG current change (%, negative = inhibition) at 1uM” value turn out when CCn1c(CNC(=O)c2ccco2)nnc1SCC(=O)Nc1cc(C(F)(F)F)ccc1Cl was run?
**A.** -8.83%

**Q.** CCOc1ccc(Oc2ccc(S(=O)(=O)N3CCOCC3)cc2N)cc1 was tested. Which “hERG current change (%, negative = inhibition) at 1uM” value did it give?
**A.** 5.58%

**Q.** Which “hERG current change (%, negative = inhibition) at 1uM” value does the source give for Cc1cccc(OC(C)C(=O)Nc2cc(S(=O)(=O)N3CCCCC3)ccc2C)c1 (stereo not shown) here?
**A.** 0.572%

**Q.** Which “hERG current change (%, negative = inhibition) at 1uM” value does the source give for COc1nccc(Nc2ccccc2)c1C#N here?
**A.** -2.66%

**Q.** For Cc1c(CCC(=O)NC2CC2)c(=O)oc2cc(O)ccc12, which “hERG current change (%, negative = inhibition) at 1uM” value is on record?
**A.** 8.18%

**Q.** Which “hERG current change (%, negative = inhibition) at 1uM” value does the source give for O=C(CNC(=O)c1ccc(Br)o1)NCc1ccc(Cl)cc1Cl here?
**A.** 5.24%

**Q.** Which “hERG current change (%, negative = inhibition) at 1uM” value does the source give for COc1ccc([C@H]2CC(=O)C=C(c3cccc(OC)c3OC)C2)cc1OC here?
**A.** 6.52%

**Q.** CCSc1nnc(NC(=O)C2CC2c2ccccc2)s1 (stereo not shown) was tested. Which “hERG current change (%, negative = inhibition) at 1uM” value did it give?
**A.** 11.6%

**Q.** For CC(C)C[C@H](NC(=O)N1CCn2c1nc1ccccc12)C(=O)NCc1ccccc1, which “hERG current change (%, negative = inhibition) at 1uM” value is on record?
**A.** 4.77%

**Q.** O=c1c2ccccc2nc(N2CCCC2)n1-c1ccccc1 was tested. Which “hERG current change (%, negative = inhibition) at 1uM” value did it give?
**A.** 10.4%

**Q.** CCCn1c(-c2cccnc2Cl)nc2cc(Cl)c(Cl)cc21 was tested. Which “hERG current change (%, negative = inhibition) at 1uM” value did it give?
**A.** 4.17%

**Q.** Which “hERG current change (%, negative = inhibition) at 1uM” value does the source give for COc1ccc(-c2cnc3c(c2)CCC3(C#N)C#N)cc1 here?
**A.** 0.108%

**Q.** O=C(CS(=O)(=O)Cc1ccccc1)N1CCN(c2ccccc2F)CC1 was tested. Which “hERG current change (%, negative = inhibition) at 1uM” value did it give?
**A.** 3.6%

**Q.** Which “hERG current change (%, negative = inhibition) at 1uM” value does the source give for COc1ccc(CN2CCN(c3ccc(F)cc3)CC2)c(OC)c1OC here?
**A.** -35.4%

**Q.** With O=C1Nc2ccccc2C1Cc1ccccc1 (stereo not shown) as the molecule, how does the “hERG current change (%, negative = inhibition) at 1uM” value read?
**A.** 1.62%

**Q.** Which “hERG current change (%, negative = inhibition) at 1uM” value does the source give for CCCCn1c(N)c(N(CCOC)C(=O)CCCc2cccs2)c(=O)[nH]c1=O here?
**A.** -5.03%

**Q.** COc1cc(COCC(O)CN2CCOCC2)cc(OC)c1OC.Cl (stereo not shown) was tested. Which “hERG current change (%, negative = inhibition) at 1uM” value did it give?
**A.** -0.425%

**Q.** Which “hERG current change (%, negative = inhibition) at 1uM” value does the source give for CCOC(=O)N1CCN(S(=O)(=O)c2ccc(F)c(C(=O)Nc3cccc(Cl)c3C)c2)CC1 here?
**A.** -1.1%

**Q.** For CC(C)C(=O)Nc1ccccc1N1CCN(S(C)(=O)=O)CC1, which “hERG current change (%, negative = inhibition) at 1uM” value is on record?
**A.** 6.46%

**Q.** Which “hERG current change (%, negative = inhibition) at 1uM” value does the source give for CN(C)CCCN(C(=O)CCc1ccccc1)c1nc2ccc(Cl)cc2s1.Cl here?
**A.** 2.37%
